# Reference: PubChem BioAssay AID1346428 (National Center for Advancing Translational Sciences (NCATS), 2018)
# Screen size: about 48,000 compounds; about 1,200 (2.5%) were called active. Inconclusive results (about 2%) are left out.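 The calls were made as follows: active = activation of at least 60% and not above a set upper limit (about 1 call in 100 departs from these limits); inconclusive = activation of 40% to 60%, or above that upper limit; inactive = activation under 40%.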 The list shows a part of the results.
# Target: Probable G-protein coupled receptor 32 (Homo sapiens) (UniProt O75388)
# Assay: qHTS for Agonists of Human Resolvin D1 Receptor DRV1; also: 0% is about no effect
# Conditions: CHO-K1 GPR32 beta-arrestin PathHunter luminescence, 90 min; at 76.9 µM; hits give high values; zero percent set by DMSO-only wells
# Summary of the method: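 Step 1: seed CHO-K1 GPR32 beta-arrestin cells, 2,500/well, overnight at 37 °C. Step 2: add compounds, 90 min at 37 °C. Step 3: detection reagent, 1 h ambient, then luminescence.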
# Chain of UniProt O75388 (O75388 whole entry, looked up): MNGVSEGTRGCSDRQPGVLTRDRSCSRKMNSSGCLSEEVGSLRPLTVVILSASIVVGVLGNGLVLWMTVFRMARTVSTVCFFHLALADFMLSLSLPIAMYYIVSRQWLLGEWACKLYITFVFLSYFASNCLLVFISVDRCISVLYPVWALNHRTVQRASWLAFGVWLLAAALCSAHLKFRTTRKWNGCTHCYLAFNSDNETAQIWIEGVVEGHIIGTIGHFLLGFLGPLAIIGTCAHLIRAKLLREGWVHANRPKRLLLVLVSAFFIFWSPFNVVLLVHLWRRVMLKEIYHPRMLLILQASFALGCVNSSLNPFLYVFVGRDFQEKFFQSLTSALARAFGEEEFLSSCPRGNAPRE
row,Compound,activation
1,O=C(Cn1c(=O)nc(-c2ccccc2)c2cc(Cl)ccc21)NCc1ccc(Cl)cc1,inactive: 17%
2,Nc1nc(Nc2ccccc2)nc2c1ncn2[C@@H]1O[C@H](CO)[C@@H](O)[C@H]1O,inactive: -0.962%
3,CCCS(=O)(=O)N1CC(=O)N(c2ccc(C)cc2C)C(C)(C(=O)NC2CCCCCC2)C1 (stereo not drawn),inactive: 0.0718%
4,CCOc1ccc(CCNC(=O)c2ccc3c(c2)N(Cc2ccccc2F)C(=O)c2ccccc2S3=O)cc1OCC (stereo not drawn),inactive: -8.71%
5,COc1ccc(CCNS(=O)(=O)c2cc(-c3onc(C)c3C)ccc2OC)cc1OC,inactive: -12.3%
6,O=C(CCS(=O)(=O)c1cc2c3c(c1)CCN3C(=O)CC2)Nc1cccc(Br)c1,inactive: 18.2%
7,O=C(Nc1cnn(Cc2ccc(Cl)cc2Cl)c1)c1noc2c1CCc1ccccc1-2,inactive: -8.12%
8,COc1ccc(C(CC(=O)Nc2cc(OC)c(OC)c(OC)c2)N2Cc3ccccc3C2=O)cc1 (stereo not drawn),inactive: 0.781%
9,CCN1CCN(CCCNC(=O)Cn2c(-c3cccs3)cc3cc(F)ccc32)CC1,inactive: 15.8%
10,O=C(COCc1cc(-c2ccc3c(c2)OCO3)on1)Nc1cc(C(F)(F)F)ccc1Cl,inactive: -17.1%
11,Cc1cc2c(cc1S(=O)(=O)CCC(=O)N1CCCCC1C)OCC(=O)N2 (stereo not drawn),inactive: 10.5%
12,Cc1ccc(C)c(Nc2nn3c(=O)c4cc5c(cc4nc3s2)OCO5)c1,active: 63.3%
13,CCc1ccc(NC(=O)CSc2nc(=O)n(Cc3ccncc3)c3c2CCC3)cc1,inactive: 3.48%
14,COc1ccccc1N1CCN(S(=O)(=O)CCNC(=O)Cc2ccc(Cl)cc2)CC1,inactive: -9.42%
15,O=c1c(S(=O)(=O)c2ccccc2)cn(Cc2cccc(F)c2)c2cc(N3CCCC3)c(F)cc12,inactive: -12.4%
16,CCOC(=O)N1CCc2c(sc(NCc3cccs3)c2C(=O)Nc2ccc(OC)cc2OC)C1,inactive: 0.701%
17,CCCCN(C)CCNC(=O)CN1C(=O)CSc2ccc(S(=O)(=O)N3CCCCC3)cc21,inactive: -7.3%
18,O=C(CCC1N=C2c3ccccc3N=C(SCC(=O)Nc3ccc(F)cc3)N2C1=O)NCc1cccs1 (stereo not drawn),inactive: -16.4%
19,Cc1cccc(NC(=O)c2ccc(CNS(=O)(=O)c3ccc4c(c3)C(C)(C)C(=O)N4C)cc2)c1,inactive: 16.7%
20,Cc1ccc(N2CCN(C(=O)NCc3noc4ccc(C)cc34)CC2)c(C)c1,inactive: -24.4%
21,Cc1ccccc1C(=O)N(Cc1ccc(N(C)C)cc1)CC1CCCO1 (stereo not drawn),inactive: -21.9%

row,Compound,activation
1,O=C(NCCOCCn1c(=O)oc2ccccc21)Nc1cccc(Cl)c1,inactive: -9.21%
2,COc1ccccc1NC(=O)CSC1=Nc2ccccc2C2=NC(CC(=O)NCc3ccc4c(c3)OCO4)C(=O)N12 (stereo not drawn),inactive: 20%
3,CCOC(=O)c1noc2ncnc(NCc3ccccc3OC)c12,inactive: -23.7%
4,COc1ccccc1N=C1SC(C(=O)Nc2ccccc2OC)CC(=O)N1C (stereo not drawn),inactive: -16.1%
5,Cc1ccc(CNC(=O)c2sc3nc4n(c(=O)c3c2C)CCCCC4)cc1,inactive: -2.72%
6,COC(=O)c1ccccc1NC(=O)C1CCCN(c2ncnc3onc(C)c23)C1 (stereo not drawn),inactive: 6.6%
7,CC(C)c1ccc(NC(=O)c2ccc3c(O)c(S(=O)(=O)c4ccccc4)c(=O)[nH]c3c2)cc1,inactive: -0.853%
8,Cc1ccc(C(=O)N(c2ccc(C)cc2)S(=O)(=O)c2ccc(Cl)cc2)cc1,inactive: -30.1%
9,Cc1ccc(-n2nc(C(=O)N(C)Cc3ccccc3)c3c4ccccc4n(C)c3c2=O)cc1,inactive: -2.04%
10,COc1cc(OC)c(N(C)C(=O)c2cc3c(=O)oc4ccccc4c3s2)cc1Cl,inactive: 19.9%
11,O=c1c2ccccc2n2c(-c3ccccc3F)nnc2n1CCc1ccccc1,inactive: 14.9%
12,Cc1ccc(-n2c(=O)c3c(c4cc(C)ccc4n3C)n(Cc3ccc(F)cc3)c2=O)cc1,inactive: -9.75%
13,Cc1ccc(NC(=O)C(Cc2ccccc2)N2Cc3ccccc3C2=O)cc1Cl (stereo not drawn),inactive: -23.3%
14,O=C(CNC(=O)c1ccccc1)OCc1cc(=O)n2nc(C3CC3)sc2n1,inactive: -4.49%
15,Cc1ccc(Nc2c(-c3ccc(C)o3)nc3cccc(C)n23)cc1,inactive: -21.3%
16,CCC1CCCCN1C(=O)CCS(=O)(=O)c1cc2c(cc1C)NC(=O)CO2 (stereo not drawn),inactive: 1.87%
17,O=c1c2oc3ccccc3c2n(Cc2ccc(Cl)cc2)c(=O)n1Cc1ccccc1,inactive: -11.1%
18,CCS(=O)(=O)c1ncc(Cl)c(C(=O)NCc2ccccc2)n1,inactive: -12.8%
19,CC1(C)OC(=O)Nc2ccc(Br)cc21,inactive: -4.65%
20,Cc1cc(C)cc(-n2c(SCC(=O)N3CCCCCC3)nc3c([nH]c4ccccc43)c2=O)c1,inactive: -8.14%
21,COc1ccc(-c2cc(=O)oc3c4c(ccc23)OCN(Cc2ccccc2)C4)cc1,inactive: -6.26%

row,Compound,activation
1,O=C(Nc1cc(F)ccc1F)c1ccc(CN2CC(=O)N3CCCCC3C2=O)cc1 (stereo not drawn),inactive: -10.3%
2,CC(=O)c1ccc(NC(=O)CSc2nnc(N)s2)cc1,inactive: -5.08%
3,C=C(C)Cn1c(SCC(=O)c2ccccc2)nc2sc3c(c2c1=O)CCCC3,inactive: -6.54%
4,CC(=O)Nc1c(C)nn(-c2ccccc2)c1N1CCC(C(=O)NCc2ccc(F)cc2)CC1,inactive: -3.13%
5,CCn1cc2nc(SCc3cccc(C(F)(F)F)c3)n(Cc3ccc(OC)cc3)c(=O)c2n1,inactive: -17.4%
6,CCOCCn1c(N2CCCN(C)CC2)nc2ccccc21,inactive: -0.415%
7,Cc1ccc2oc(-c3cc(NC(=O)c4oc5ccccc5c4C)ccc3Cl)nc2c1,inactive: 2.37%
8,Cc1ccc2oc(=O)n(Cc3ccccc3Cl)c2c1,inactive: -10.3%
9,O=S(=O)(c1cccc2c(Cl)cccc12)N1CCCNCC1,inactive: 13.2%
10,CCCNC(=O)C1CCC(CNS(=O)(=O)c2ccc3c(c2)CC(C)N3C(C)=O)CC1 (stereo not drawn),inactive: -5.15%
11,CN(Cc1ccc(F)cc1)S(=O)(=O)c1nnc(NC(=O)c2ccccc2)s1,inactive: 16.1%
12,CCc1ccc(OCC(=O)Nc2cc(-c3nc4cc(C)ccc4o3)ccc2C)cc1,inactive: 13.3%
13,CCOc1ccc(Nc2ncnc3scc(-c4ccc(OC)cc4)c23)cc1,inactive: -7.38%
14,Cc1ccc(C(=O)NCc2ccccc2)cc1NC(=O)c1nsc2ccccc12,inactive: -18.7%
15,Cc1ccc(NC(=O)c2oc3ccccc3c2NC(=O)C23CC4CC(CC(C4)C2)C3)cc1,inactive: -3.36%
16,CCOC(=O)c1c(C)[nH]c(C)c1S(=O)(=O)N1CCC(C(=O)Nc2ccc(C)c(N(C)C)c2)CC1,inactive: 19.9%
17,CCc1ccc(N2C(=O)CN(S(=O)(=O)CC)CC2(C)C(=O)NC2CCCCC2)cc1 (stereo not drawn),inactive: -7.53%
18,Cc1cc(-c2ccc(C)c(S(=O)(=O)NCc3cccs3)c2)on1,inactive: -11.7%
19,CC(C)(C)OC(=O)N1CCC(c2c(C(=O)N3CCN(Cc4ccccc4)CC3)cnn2-c2ccc(Cl)cc2)CC1,inactive: -15.9%
20,Cn1cc(C(=O)NCCc2ccccc2)c(=O)c2cc(S(=O)(=O)N3CCCCC3)ccc21,inactive: -2.17%
21,c1ccc2c(c1)ncc1nncn12,inactive: -0.389%

row,Compound,activation
1,CC1CCC(NC(=O)Cn2ncc3c4ccccc4n(Cc4ccc(F)cc4)c3c2=O)CC1 (stereo not drawn),inactive: -21.4%
2,O=c1[nH]c2ccc(NCc3ccc(-c4ccc(F)cc4)o3)cc2[nH]1,inactive: -7.47%
3,COc1ccc(CNC(=O)c2nn(C)c3c2CS(=O)(=O)c2ccccc2-3)cc1,inactive: -2.85%
4,Cc1ccc(Nc2ncc(C(=O)Nc3ccc(F)cc3F)c3ccccc23)cc1Cl,inactive: -28.6%
5,CC(=O)c1ccc(NC(=O)CSc2ccc3nnc(CCNS(=O)(=O)c4ccc(C)cc4)n3n2)cc1,inactive: -19.7%
6,CCC1CCCCN1S(=O)(=O)c1cc2c(cc1C)NC(=O)CO2 (stereo not drawn),inactive: -5.81%
7,Cc1ccc(CN(C(=O)COc2ccc([N+](=O)[O-])cc2)c2ccccn2)o1,inactive: 4.69%
8,COc1ccc(CCNC(=O)CCS(=O)(=O)c2cc3c(cc2Cl)NC(=O)CO3)cc1OC,inactive: -6.07%
9,CC1=C(C(=O)O)N2C(=O)[C@@H](NC(=O)[C@H](N)c3ccccc3)[C@H]2SC1,inactive: 6.03%
10,O=C(COc1ccccc1)Nc1nnc(SCc2cc(=O)n3cc(Cl)ccc3n2)s1,inactive: -5.59%
11,COc1ccc(-c2noc(CSc3nnc(Cc4ccccc4)n3-c3cccc(C)c3)n2)cc1,inactive: 1.75%
12,COc1ccc(/C=C/C(=O)Nc2ccc3nc4c(c(Nc5ccc(OC)c(OC)c5)c3c2)CCCC4)cc1,inactive: -3.06%
13,CCCc1nn2cc(-c3ccc(C)c(C)c3)nc2s1,inactive: -38.4%
14,CCOC(=O)Cc1c(C)nc2c(-c3ccc(Cl)cc3)c(C(F)(F)F)nn2c1C,inactive: -6.64%
15,CCc1nnc(SCC(=O)Nc2cccc(C(F)(F)F)c2)c2cc3oc(C)cc3n12,inactive: -13.7%
16,CCC(C(=O)Nc1ccccc1OC)n1c(C(=O)OC)cc2sc(Cl)cc21 (stereo not drawn),inactive: -23.9%
17,Cc1ccc2onc(CNC(=O)NCc3ccccc3)c2c1,inactive: 3.65%
18,Cc1oc(-c2ccccc2Cl)nc1CS(=O)(=O)CC(=O)NC(C)c1ccccc1 (stereo not drawn),inactive: 4.07%
19,CC(=O)N1CCc2cc(S(=O)(=O)NC(CC(C)C)C(=O)NCCc3cccc(C)c3)ccc21 (stereo not drawn),inactive: 8.42%
20,CCOCCCNC(=O)c1ccc2c(=O)n(CCc3ccc(OC)c(OC)c3)c(=O)[nH]c2c1,inactive: 6.83%
